From PubChem BioAssay (NCATS)
The shares of active, inactive and inconclusive entries below differ from those in the screen. Potencies of inconclusive entries are left out as doubtful fits. Activity calls are given as the source filed them. Calls follow the shape of the dose curve; as a rule, active = well fitted inhibition curve with a large enough effect; inconclusive = small, poorly fitted or top-dose-only effect; inactive = flat fitted curve, though single readings scatter.

Molecular target: Aldehyde dehydrogenase, mitochondrial (Homo sapiens) (UniProt P05091)
Test: qHTS for Inhibitors of the Aldehyde Dehydrogenase Family (ALDH2) Primary screen (AID 2061308); also: nearly all actives have a fitted effect of over 55% in size;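 as to activity change, negative = inhibition: plate controls were vehicle for no effect and reference inhibitor for full effect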
Conditions: ALDH2 enzyme inhibition qHTS, 1536-well; series mostly up to 56 µM
Potency is read from the fitted curve at half-maximal effect; tags tell the direction and shape of the fitted curve.

Structure (SMILES) | Potency | activity change, negative = inhibition
CC(C)n1cnc2c(Nc3cccc(Cl)c3)nc(NCCO)nc21 | inactive | –
C=C1C(=O)OC2C1CCC1(C)C(O)CCC(=C)C21 (stereo not given) | inactive | –
CC1OC(OC2C(O)COC(O[C@@H]3[C@@H](O)[C@@H](O)[C@H](OC4C(OC(=O)[C@]56CCC(C)(C)CC5C5=CCC7[C@@]8(C)C[C@H](O)[C@H](OC9OC(CO)C(O)C(O)C9O)[C@@](C)(CO)C8[C@H](O)C[C@@]7(C)[C@]5(C)CC6)OCC(O)C4O)O[C@H]3C)C2O)C(O)C(O)C1O (stereo not given in full) | – | inactive: 13.1% [at 11.2 µM]
CC(=O)O[C@@H]1C[C@@]23C[C@@]24CC[C@H](O[C@@H]2OC[C@H](O)[C@H](O)[C@H]2O)C(C)(C)[C@@H]4CC[C@H]3[C@]2(C)[C@@H](O)C34O[C@H](C[C@@H](C)[C@@H]3[C@@]12C)[C@@H](C(C)(C)O)O4 | inactive | –
C=C1C(=O)O[C@H]2C1[C@H](OC(=O)/C(=C/CO)COC(=O)/C(C)=C/CO)CC(=C)[C@@H]1CC(=O)[C@@H](C)[C@@H]12 (stereo not given in full) | inconclusive [inhibitor, single point] | –
NC(=O)c1cccc(-c2cc(O)cc(OC(=O)NC3CCCCC3)c2)c1 | inconclusive [inhibitor, single point] | –
COc1ccc(-c2nc3ccc(C4=NNC(=O)CC4C)cc3[nH]2)cc1 (stereo not given) | inconclusive [inhibitor, partial curve, poor fit] | –
C[C@@H]1C[C@@H]2O[C@H]2/C=C\C=C\C(=O)Cc2c(Cl)c(O)cc(O)c2C(=O)O1 | inconclusive [inhibitor, partial curve] | –
Cc1ccc(-c2c(C(=O)CF)n(CCCO)c3ncnc(N)c23)cc1 | inactive | –
CC(C)(Cc1ccccc1)NCC(O)c1ccc(O)c(NS(C)(=O)=O)c1 (stereo not given) | inactive | –
COc1ccc2[nH]c(S(=O)Cc3ncc(C)c(OC)c3C)nc2n1 (stereo not given) | inconclusive [inhibitor, partial curve] | –
Cc1nc(Nc2cnn(C3CCNCC3)c2)nc2c1N(C)C(=O)c1cc3ccccc3cc1N2C | inactive | –
CCCC(N[C@@H](C)C(=O)N1[C@H](C(=O)O)C[C@@H]2CCCC[C@@H]21)C(=O)OCC (stereo not given in full) | inactive | –
CCOP(=O)(Cc1ccc(C(=O)Nc2ccc(Br)cc2C#N)cc1)OCC | inactive | –
O=C1NC2CCCCN2C12CCN(CCCN1c3ccccc3CCc3ccc(Cl)cc31)CC2 (stereo not given) | inactive | –
O=C(c1ccc(Cl)c([N+](=O)[O-])c1)N1CCN(c2ccccc2F)CC1 | inactive | –
NCc1ccc(Nc2ncc(F)c(Nc3ccccc3)n2)cc1 | inactive | –
COc1cc(N2CCC(O)CC2)ccc1Nc1nc(Nc2ccccc2S(=O)(=O)C(C)C)c2[nH]cnc2n1 | inconclusive [inhibitor, partial curve, poor fit] | –
CN1c2ccccc2C(=O)N2CCC3c4ccccc4NC3C21 (stereo not given) | inactive | –
COc1cc2c(cc1-c1c(C)noc1C)ncc1[nH]c(=O)n(C(C)c3ccccn3)c12 (stereo not given) | inactive | –
COc1cc2c(cc1OC)CN(C(=O)/C=C/c1c(-c3ccccc3)n(C)c3ncccc13)CC2 | inconclusive [inhibitor, partial curve, poor fit] | –
O=S(=O)(NCc1cccc2ccccc12)c1cc(Cl)c(Oc2cccc(N3CCNCC3)c2)s1 | inactive | –
C=CC1C(OC2OC(CO)C(O)C(O)C2O)OC=C2C(=O)N3C(C(=O)O)Cc4c([nH]c5ccccc45)C3CC21 (stereo not given) | inactive | –
CCS(=O)(=O)N1CC(CC#N)(n2cc(-c3ncnc4[nH]ccc34)cn2)C1 | inactive | –
CC[C@H](CO)Nc1nc(NCc2ccc(-c3ccccn3)cc2)c2ncn(C(C)C)c2n1 | inconclusive [inhibitor, single point] | –
Fc1ccc(-c2nc(C3CCNCC3)sc2-c2ccnc(NC3CC3)n2)cc1 | inactive | –
CC(C)c1ccc(NC(=O)C(c2ccccc2)N(C)C(=O)Cc2c[nH]c3ccccc23)cc1 (stereo not given) | inconclusive [inhibitor, partial curve, poor fit] | –
CC[C@@H](N)CNc1ccnc(-c2cc(-c3cnn(C)c3)ccc2O)n1 | inactive | –
O=C(NCc1ccc(Oc2ccccc2)cc1)c1nc(-c2cc(Br)c(O)c(Br)c2)no1 | inconclusive [inhibitor, single point] | –
CC(C)Nc1cc(-c2c[nH]c(C(=O)N[C@H](CO)c3cccc(Cl)c3)c2)c(Cl)cn1 | inactive | –
